Article PMC7876033
These are yes or no findings as the source states them, for the method shown. Some binding calls cover weakened binding; strength is not graded here.

T1: isopropylmalate dehydrogenase 3 (IPMDH3) (Arabidopsis thaliana) (UniProt Q9SA14)
T1 sequence: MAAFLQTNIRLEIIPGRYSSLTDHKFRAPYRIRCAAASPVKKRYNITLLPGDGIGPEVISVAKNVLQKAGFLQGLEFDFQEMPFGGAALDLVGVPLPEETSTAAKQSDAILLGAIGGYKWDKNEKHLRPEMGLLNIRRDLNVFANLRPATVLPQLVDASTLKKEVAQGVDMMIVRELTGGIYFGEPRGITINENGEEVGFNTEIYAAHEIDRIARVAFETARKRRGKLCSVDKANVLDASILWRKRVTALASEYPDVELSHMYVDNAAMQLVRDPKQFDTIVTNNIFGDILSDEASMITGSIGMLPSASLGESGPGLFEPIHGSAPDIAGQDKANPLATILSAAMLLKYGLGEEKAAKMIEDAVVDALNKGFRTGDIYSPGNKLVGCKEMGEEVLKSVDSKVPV

T2: isopropylmalate dehydrogenase 1 (IPMDH1) (Arabidopsis thaliana) (UniProt Q9FMT1)
T2 sequence: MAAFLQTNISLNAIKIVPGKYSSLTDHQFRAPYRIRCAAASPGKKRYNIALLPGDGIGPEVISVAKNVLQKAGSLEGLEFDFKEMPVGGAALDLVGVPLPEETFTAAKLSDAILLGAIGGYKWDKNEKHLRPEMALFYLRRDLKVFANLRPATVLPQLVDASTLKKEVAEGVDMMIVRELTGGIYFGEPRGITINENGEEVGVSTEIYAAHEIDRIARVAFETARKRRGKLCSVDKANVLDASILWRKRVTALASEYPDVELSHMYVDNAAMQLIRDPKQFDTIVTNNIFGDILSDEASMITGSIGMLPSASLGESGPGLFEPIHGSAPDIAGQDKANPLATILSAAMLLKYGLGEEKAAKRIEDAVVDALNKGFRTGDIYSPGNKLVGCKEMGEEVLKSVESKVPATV

T3: isopropylmalate dehydrogenase 2 (IPMDH2) (Arabidopsis thaliana) (UniProt P93832)
T3 sequence: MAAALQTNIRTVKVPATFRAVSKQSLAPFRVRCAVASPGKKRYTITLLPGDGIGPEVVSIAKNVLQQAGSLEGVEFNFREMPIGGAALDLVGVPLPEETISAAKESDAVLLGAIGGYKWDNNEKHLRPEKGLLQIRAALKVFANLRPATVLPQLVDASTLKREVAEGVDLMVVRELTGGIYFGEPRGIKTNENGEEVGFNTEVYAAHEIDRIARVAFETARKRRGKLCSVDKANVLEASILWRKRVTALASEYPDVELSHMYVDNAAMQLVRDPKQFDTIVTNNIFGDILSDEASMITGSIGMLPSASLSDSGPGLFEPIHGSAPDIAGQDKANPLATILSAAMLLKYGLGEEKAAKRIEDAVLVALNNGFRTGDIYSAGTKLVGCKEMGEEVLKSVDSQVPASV

T4: isopropylmalate isomerase (IPMI) small subunit LeuD1 (Arabidopsis thaliana) (UniProt Q9ZW84)
T4 sequence: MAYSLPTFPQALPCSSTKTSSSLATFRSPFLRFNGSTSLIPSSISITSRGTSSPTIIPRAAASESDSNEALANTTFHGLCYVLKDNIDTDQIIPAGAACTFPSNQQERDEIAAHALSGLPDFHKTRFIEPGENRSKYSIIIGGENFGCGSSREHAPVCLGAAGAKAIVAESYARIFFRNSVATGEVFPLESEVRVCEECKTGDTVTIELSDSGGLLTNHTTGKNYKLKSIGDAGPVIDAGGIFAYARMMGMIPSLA

T5: isopropylmalate isomerase (IPMI) small subunit LeuD2 (Arabidopsis thaliana) (UniProt Q9LYT7)
T5 sequence: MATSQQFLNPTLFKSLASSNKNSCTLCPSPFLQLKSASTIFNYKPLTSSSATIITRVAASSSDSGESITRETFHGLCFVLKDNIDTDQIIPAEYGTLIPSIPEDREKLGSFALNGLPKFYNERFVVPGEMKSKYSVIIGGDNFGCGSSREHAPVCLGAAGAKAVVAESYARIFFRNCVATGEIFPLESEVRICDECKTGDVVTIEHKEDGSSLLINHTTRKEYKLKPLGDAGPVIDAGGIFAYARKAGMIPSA

T6: isopropylmalate isomerase (IPMI) small subunit LeuD3 (Arabidopsis thaliana) (UniProt Q9ZW85)
T6 sequence: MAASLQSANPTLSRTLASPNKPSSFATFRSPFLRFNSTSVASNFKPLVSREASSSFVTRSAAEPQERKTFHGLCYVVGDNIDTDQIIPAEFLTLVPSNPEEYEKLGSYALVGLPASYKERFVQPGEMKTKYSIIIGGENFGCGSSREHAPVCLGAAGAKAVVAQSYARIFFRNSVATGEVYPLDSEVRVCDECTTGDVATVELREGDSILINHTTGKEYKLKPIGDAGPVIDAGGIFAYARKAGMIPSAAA

T7: methylthioalkylmalate synthase 3 (MAM3) (Arabidopsis thaliana) (UniProt Q9FN52)
T7 sequence: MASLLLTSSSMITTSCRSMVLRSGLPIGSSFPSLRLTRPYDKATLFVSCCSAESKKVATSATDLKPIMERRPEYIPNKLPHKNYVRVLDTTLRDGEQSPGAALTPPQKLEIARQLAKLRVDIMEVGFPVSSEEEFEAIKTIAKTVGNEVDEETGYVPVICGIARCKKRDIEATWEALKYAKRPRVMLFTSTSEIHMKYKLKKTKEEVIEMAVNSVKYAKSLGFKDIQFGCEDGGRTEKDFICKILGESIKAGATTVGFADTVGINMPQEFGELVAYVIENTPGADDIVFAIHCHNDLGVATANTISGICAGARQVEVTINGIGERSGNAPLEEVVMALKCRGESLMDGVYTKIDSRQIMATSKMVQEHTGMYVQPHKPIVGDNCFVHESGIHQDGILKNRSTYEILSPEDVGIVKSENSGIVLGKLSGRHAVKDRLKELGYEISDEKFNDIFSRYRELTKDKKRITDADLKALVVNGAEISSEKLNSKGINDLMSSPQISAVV


Experiments:
Test in all cases: two-hybrid; pair-wise; GAL4 DNA-binding domain (pPC97) and GAL4 activation domain (pPC86) fusions co-transformed into yeast strain CG1945; growth on SD/-Trp-Leu-His with 1 mM 3AT
[1] = biological target: T1, isopropylmalate dehydrogenase 3 (IPMDH3) (Arabidopsis thaliana)
[2] = biological target: T2, isopropylmalate dehydrogenase 1 (IPMDH1) (Arabidopsis thaliana)
[3] = biological target: T3, isopropylmalate dehydrogenase 2 (IPMDH2) (Arabidopsis thaliana)
[4] = biological target: T4, isopropylmalate isomerase (IPMI) small subunit LeuD1 (Arabidopsis thaliana)
[5] = biological target: T5, isopropylmalate isomerase (IPMI) small subunit LeuD2 (Arabidopsis thaliana)
[6] = biological target: T6, isopropylmalate isomerase (IPMI) small subunit LeuD3 (Arabidopsis thaliana)
[7] = biological target: T7, methylthioalkylmalate synthase 3 (MAM3) (Arabidopsis thaliana)

Row | Binder | binding [1] | binding [2] | binding [3] | binding [4] | binding [5] | binding [6] | binding [7]
1 | isopropylmalate dehydrogenase 3 (IPMDH3) (enzyme, UniProt Q9SA14 1-404) MAAFLQTNIRLEIIPGRYSSLTDHKFRAPYRIRCAAASPVKKRYNITLLPGDGIGPEVISVAKNVLQKAGFLQGLEFDFQEMPFGGAALDLVGVPLPEETSTAAKQSDAILLGAIGGYKWDKNEKHLRPEMGLLNIRRDLNVFANLRPATVLPQLVDASTLKKEVAQGVDMMIVRELTGGIYFGEPRGITINENGEEVGFNTEIYAAHEIDRIARVAFETARKRRGKLCSVDKANVLDASILWRKRVTALASEYPDVELSHMYVDNAAMQLVRDPKQFDTIVTNNIFGDILSDEASMITGSIGMLPSASLGESGPGLFEPIHGSAPDIAGQDKANPLATILSAAMLLKYGLGEEKAAKMIEDAVVDALNKGFRTGDIYSPGNKLVGCKEMGEEVLKSVDSKVPV | binds weakly | – | – | – | – | – | –
2 | isopropylmalate dehydrogenase 1 (IPMDH1) (enzyme, UniProt Q9FMT1 1-409) MAAFLQTNISLNAIKIVPGKYSSLTDHQFRAPYRIRCAAASPGKKRYNIALLPGDGIGPEVISVAKNVLQKAGSLEGLEFDFKEMPVGGAALDLVGVPLPEETFTAAKLSDAILLGAIGGYKWDKNEKHLRPEMALFYLRRDLKVFANLRPATVLPQLVDASTLKKEVAEGVDMMIVRELTGGIYFGEPRGITINENGEEVGVSTEIYAAHEIDRIARVAFETARKRRGKLCSVDKANVLDASILWRKRVTALASEYPDVELSHMYVDNAAMQLIRDPKQFDTIVTNNIFGDILSDEASMITGSIGMLPSASLGESGPGLFEPIHGSAPDIAGQDKANPLATILSAAMLLKYGLGEEKAAKRIEDAVVDALNKGFRTGDIYSPGNKLVGCKEMGEEVLKSVESKVPATV | binds | binds | binds | – | – | – | –
3 | isopropylmalate dehydrogenase 2 (IPMDH2) (enzyme, UniProt P93832 1-405) MAAALQTNIRTVKVPATFRAVSKQSLAPFRVRCAVASPGKKRYTITLLPGDGIGPEVVSIAKNVLQQAGSLEGVEFNFREMPIGGAALDLVGVPLPEETISAAKESDAVLLGAIGGYKWDNNEKHLRPEKGLLQIRAALKVFANLRPATVLPQLVDASTLKREVAEGVDLMVVRELTGGIYFGEPRGIKTNENGEEVGFNTEVYAAHEIDRIARVAFETARKRRGKLCSVDKANVLEASILWRKRVTALASEYPDVELSHMYVDNAAMQLVRDPKQFDTIVTNNIFGDILSDEASMITGSIGMLPSASLSDSGPGLFEPIHGSAPDIAGQDKANPLATILSAAMLLKYGLGEEKAAKRIEDAVLVALNNGFRTGDIYSAGTKLVGCKEMGEEVLKSVDSQVPASV | binds | – | binds | – | – | – | –

Continued, values first:

Row | binding [1] | binding [2] | binding [3] | binding [4] | binding [5] | binding [6] | binding [7] | Binder
4 | no binding | no binding | no binding | no binding | no binding | no binding | – | methylthioalkylmalate synthase 3 (MAM3) (enzyme, UniProt Q9FN52 1-503) MASLLLTSSSMITTSCRSMVLRSGLPIGSSFPSLRLTRPYDKATLFVSCCSAESKKVATSATDLKPIMERRPEYIPNKLPHKNYVRVLDTTLRDGEQSPGAALTPPQKLEIARQLAKLRVDIMEVGFPVSSEEEFEAIKTIAKTVGNEVDEETGYVPVICGIARCKKRDIEATWEALKYAKRPRVMLFTSTSEIHMKYKLKKTKEEVIEMAVNSVKYAKSLGFKDIQFGCEDGGRTEKDFICKILGESIKAGATTVGFADTVGINMPQEFGELVAYVIENTPGADDIVFAIHCHNDLGVATANTISGICAGARQVEVTINGIGERSGNAPLEEVVMALKCRGESLMDGVYTKIDSRQIMATSKMVQEHTGMYVQPHKPIVGDNCFVHESGIHQDGILKNRSTYEILSPEDVGIVKSENSGIVLGKLSGRHAVKDRLKELGYEISDEKFNDIFSRYRELTKDKKRITDADLKALVVNGAEISSEKLNSKGINDLMSSPQISAVV
5 | no binding | no binding | no binding | no binding | no binding | no binding | no binding | methylthioalkylmalate synthase 1 (MAM1) (enzyme, UniProt Q9FG67 1-506) MASSLLTSSVMIPTTGSTVVGRSVLPFQSSLHSLRLTHSYKNPALFISCCSSVSKNAATSSTDLKPVVERWPEYIPNKLPDGNYVRVFDTTLRDGEQSPGGSLTPPQKLEIARQLAKLRVDIMEVGFPGSSEEELETIKTIAKTVGNEVDEETGYVPVICAIARCKHRDIEATWEALKYAKRPRILVFTSTSDIHMKYKLKKTQEEVIEMAVSSIRFAKSLGFNDIQFGCEDGGRSDKDFLCKILGEAIKAGVTVVTIGDTVGINMPHEYGELVTYLKANTPGIDDVVVAVHCHNDLGLATANSIAGIRAGARQVEVTINGIGERSGNASLEEVVMALKCRGAYVINGVYTKIDTRQIMATSKMVQEYTGLYVQAHKPIVGANCFVHESGIHQDGILKNRSTYEILSPEDIGIVKSQNSGLVLGKLSGRHAVKDRLKELGYELDDEKLNAVFSLFRDLTKNKKRITDADLKALVTSSDEISLEKLNGANGLKSNGYIPVPQVSSNV
